# Over roughly 81,000 sequences, “one-hybrid fitness for binding NBS DNA” has its median near -0.1; the highest 2% begin near 0.36. The list shows a part of the results.
# B1: Caulobacter ParB omega fusion; a variant is named by its letters at X, in order, B8GW30 (parent)
# chain: MESVVVGEPGMSEGRRGLGRGLSALLGEVDAAPAQAPGEQLGGSREAPIEILQRNPDQPRRTFREEDLEDLSNSIREKGVLQPILVRPSPDTAGEYQIVAGERAWRAAQRAGLKTVPIMVRELDDLAVLEIGIIENVQRADLNVLEEALSYKVLMEKFERTQENIAQTIGKSXSHVANXMRLLXLPDEVQSYLVSGELTAXHARAIAAAADPVALAKQIIEGGLSVRETEALARKAPNLSAGKSKGGRPPRVKDTDTQALESDLSSVLGLDVSIDHRGSTGTLTITYATLEQLDDLCNRLTRGI
# Variants of: B1
# Assay: one-hybrid fitness for binding NBS DNA (the Noc-binding site; scaled: cognate 1, non-cognate 0); higher = stronger binding
# Settings: with NBS DNA site
# In short: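 In E. coli USO, a HIS3 reporter with its site placed 19 bp from the promoter was used to select Caulobacter ParB variants randomised at four specificity codons. Growth lasted 48 hours at 37°C on histidine-free M9 containing 0.1 mM IPTG and 5 mM 3-AT. Fitness was taken as the log change in variant-to-wild-type read ratio from Illumina sequencing of pre- and post-selection plasmids, rescaled between the non-cognate and cognate sites.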
row,Variant,one-hybrid fitness for binding NBS DNA
1,NKLC,≤ 0.2
2,QRLF,0.238
3,RNMD,≤ 0.2
4,VPSG,≤ 0.2
5,MYMR,≤ 0.2
6,LNHI,≤ 0.2
7,LYYL,≤ 0.2
8,DTFI,≤ 0.2
9,MNLT,≤ 0.2
10,SGFW,≤ 0.2
11,PRLF,≤ 0.2
12,RTGK,≤ 0.2
13,RRGH,0.44
14,DMHG,≤ 0.2
15,KLNM,≤ 0.2
16,TDDT,≤ 0.2
17,NMLV,≤ 0.2
18,DMPM,≤ 0.2
19,ICTT,≤ 0.2
20,IPCY,≤ 0.2
21,MQNS,≤ 0.2
22,RAML,≤ 0.2
23,QHET,0.272
24,RPKD,≤ 0.2
25,EAMR,≤ 0.2

row,Variant,one-hybrid fitness for binding NBS DNA
1,HVLV,≤ 0.2
2,PVHV,≤ 0.2
3,HPRS,≤ 0.2
4,EWPP,≤ 0.2
5,ADAV,≤ 0.2
6,IRSR,0.282
7,TFCT,≤ 0.2
8,AYAD,≤ 0.2
9,PGGL,≤ 0.2
10,ILQP,≤ 0.2
11,HTPM,≤ 0.2
12,GVDG,≤ 0.2
13,VARL,≤ 0.2
14,QDVY,≤ 0.2
15,CCSW,≤ 0.2
16,WSMR,≤ 0.2
17,FNQS,≤ 0.2
18,QRPM,≤ 0.2
19,RVWD,≤ 0.2
20,YCAG,≤ 0.2
21,QMGV,≤ 0.2
22,RVWW,≤ 0.2
23,IQHR,≤ 0.2
24,ACKR,0.22
25,MELF,≤ 0.2

row,Variant,one-hybrid fitness for binding NBS DNA
1,WQRS,≤ 0.2
2,PQRA,≤ 0.2
3,AVVH,≤ 0.2
4,PDGD,≤ 0.2
5,TINY,≤ 0.2
6,HILR,≤ 0.2
7,SQPR,≤ 0.2
8,ESVV,≤ 0.2
9,NYFA,≤ 0.2
10,LKSS,≤ 0.2
11,HVQI,≤ 0.2
12,ASKR,0.209
13,CARL,≤ 0.2
14,EHRK,≤ 0.2
15,PIRG,≤ 0.2
16,VSCY,≤ 0.2
17,MRAV,≤ 0.2
18,NESC,≤ 0.2
19,RNPE,≤ 0.2
20,HQMG,≤ 0.2
21,KIWS,≤ 0.2
22,FRTS,≤ 0.2
23,DRMY,≤ 0.2
24,RNHN,≤ 0.2
25,HTYS,≤ 0.2

row,Variant,one-hybrid fitness for binding NBS DNA
1,ILAG,≤ 0.2
2,PLKY,≤ 0.2
3,KTAG,≤ 0.2
4,AQLI,≤ 0.2
5,AVNG,≤ 0.2
6,VGNG,≤ 0.2
7,WFNT,≤ 0.2
8,KRRR,0.787
9,QRGM,0.436
10,SGAF,≤ 0.2
11,VTQI,≤ 0.2
12,YQSV,≤ 0.2
13,WTLF,≤ 0.2
14,CWIS,≤ 0.2
15,IRFC,≤ 0.2
16,FSES,≤ 0.2
17,QIPN,≤ 0.2
18,CNKY,≤ 0.2
19,QYLL,≤ 0.2
20,HCIG,≤ 0.2
21,MPSC,≤ 0.2
22,DIQV,≤ 0.2
23,VRNL,≤ 0.2
24,SRVK,≤ 0.2
25,HFPG,≤ 0.2

row,Variant,one-hybrid fitness for binding NBS DNA
1,RAYI,≤ 0.2
2,WWRS,≤ 0.2
3,EWTV,≤ 0.2
4,TWPG,≤ 0.2
5,WAMY,≤ 0.2
6,TCAG,≤ 0.2
7,SRSY,≤ 0.2
8,FTSF,≤ 0.2
9,PFAH,≤ 0.2
10,LRGS,≤ 0.2
11,KPVM,≤ 0.2
12,LCSL,≤ 0.2
13,IPKT,≤ 0.2
14,HGFM,≤ 0.2
15,TCGS,≤ 0.2
16,RHNM,≤ 0.2
17,DHPF,≤ 0.2
18,MNST,≤ 0.2
19,DISR,≤ 0.2
20,QHAC,≤ 0.2
21,VCVI,≤ 0.2
22,DSMS,≤ 0.2
23,AHTH,≤ 0.2
24,CVFT,≤ 0.2
25,DHQS,≤ 0.2

row,Variant,one-hybrid fitness for binding NBS DNA
1,MEQS,≤ 0.2
2,QSVV,≤ 0.2
3,KTAW,≤ 0.2
4,GAAM,≤ 0.2
5,MYTA,≤ 0.2
6,GRQK,≤ 0.2
7,HRGQ,≤ 0.2
8,LPAF,≤ 0.2
9,VTSF,≤ 0.2
10,THHR,≤ 0.2
11,STHY,≤ 0.2
12,QTSP,≤ 0.2
13,KAIM,≤ 0.2
14,ARTK,≤ 0.2
15,MHSA,≤ 0.2
16,TIGC,≤ 0.2
17,IPIV,≤ 0.2
18,HLKK,≤ 0.2
19,YIFL,≤ 0.2
20,RWCM,≤ 0.2
21,DTTA,≤ 0.2
22,YQSR,≤ 0.2
23,LTPP,≤ 0.2
24,DEQR,≤ 0.2
25,QRSG,0.339

row,Variant,one-hybrid fitness for binding NBS DNA
1,SYTE,≤ 0.2
2,RMEE,≤ 0.2
3,NEMC,≤ 0.2
4,CQVA,≤ 0.2
5,QRHV,0.439
6,GYTH,≤ 0.2
7,QTAD,≤ 0.2
8,NRED,≤ 0.2
9,ARVH,≤ 0.2
10,KRYN,≤ 0.2
11,KCDL,≤ 0.2
12,QWPL,≤ 0.2
13,GLMW,≤ 0.2
14,QAQA,0.252
15,TNTM,≤ 0.2
16,DATS,≤ 0.2
17,CHYK,≤ 0.2
18,TQNH,≤ 0.2
19,MTEG,≤ 0.2
20,SAWQ,≤ 0.2
21,QRNE,0.276
22,QPMS,≤ 0.2
23,AVRD,≤ 0.2
24,MHGS,≤ 0.2
25,KALC,≤ 0.2

row,Variant,one-hybrid fitness for binding NBS DNA
1,AFDS,≤ 0.2
2,AFMS,≤ 0.2
3,MNVM,≤ 0.2
4,DSVG,≤ 0.2
5,RGHM,≤ 0.2
6,PMFI,≤ 0.2
7,SDKM,≤ 0.2
8,ALIC,≤ 0.2
9,WHTA,≤ 0.2
10,GDYC,≤ 0.2
11,YRHT,≤ 0.2
12,TIAV,≤ 0.2
13,FKSV,≤ 0.2
14,EMNT,≤ 0.2
15,VNMT,≤ 0.2
16,GNYL,≤ 0.2
17,VAVI,≤ 0.2
18,LGSC,≤ 0.2
19,AWRL,≤ 0.2
20,RMKT,0.606

# Reference: a collection of fitness landscapes (doi:10.1016/j.celrep.2020.107928)
